Some of the results follow. Sequences were assembled here from the parent chain. Inactive controls read about 0.05.
B1: TEV protease; numbered along this chain (parent)
chain: MGESLFKGPRDYNPISSSICHLTNESDGHTTSLYGIGFGPFIITNKHLFRRNNGTLVVQSLHGVFKVKDTTTLQQHLVDGRDMIIIRMPKDFPPFPQKLKFREPQREERICLVTTNFQTKSMSSMVSDTSCTFPSGDGIFWKHWIQTKDGQCGSPLVSTRDGFIVGIHSASNFTNTNNYFTSVPKNFMELLTNQEAQQWVSGWRLNADSVLWGGHKVFMVKPEEPFQPVKEATQL

Variants of: B1
Assay: raw area under fraction-flipped curve 0-4 h after induction (AUC4h, not background-subtracted), DNA-recorder readout of cleavage of the substrate (dimensionless); higher = more cleavage of the substrate by the protease variant
Settings: temperature: 34 °C; time window: 0-4 h after rhamnose induction
Description: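 In vivo DNA recorder in E. coli TOP10(DE3) ΔrhaA at 34 °C. Each TEVp single-site mutant (parent TEVp 0) is paired with a single-site variant of the 7-mer TEVs (canonical ENLYFQ|S). The substrate sits between flexible linkers in a Bxb1-sfGFP-TEVs-SsrA fusion, so cleavage stabilises Bxb1 and speeds flipping of a recombination array, read by NGS. The value is the raw area under the fraction-flipped curve over 0-4 h after rhamnose induction (AUC4h), with ≥20 reads per time point. It is not background-subtracted; inactive controls average about 0.047.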
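Further: Bxb1 expression induced with 0.2% (w/v) L-rhamnose at OD600 near 0.5, cultures sampled hourly, flipped fraction per protease–substrate barcode pair counted by paired-end Illumina sequencing.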

Row | Variant | area with substrate ENLYFQA | area with substrate ENLYFQC | area with substrate ENLYFQD | area with substrate ENLYFQF | area with substrate ENLYFQG | area with substrate ENLYFQH | area with substrate ENLYFQI | area with substrate ENLYFQL | area with substrate ENLYFQM | area with substrate ENLYFQN | area with substrate ENLYFQR | area with substrate ENLYFQS | area with substrate ENLYFQV | area with substrate ENLYFQW | area with substrate ENLYFQY | area with substrate ENLYFQP | area with substrate ENLYFQQ | area with substrate ENLYFQT | area with substrate ENLYFQK | area with substrate ENLYFQE
1 | G54Q | 0.0873 | 0.0669 | 0.0546 | 0.0639 | 0.0544 | 0.0534 | 0.0741 | 0.0543 | 0.0662 | 0.0574 | 0.0534 | 0.0705 | 0.0639 | 0.0664 | 0.0769 | – | – | – | – | –
2 | G54V | 0.0615 | 0.0327 | – | – | 0.072 | 0.0659 | 0.0488 | 0.0544 | 0.0668 | 0.0509 | 0.0513 | 0.0672 | – | 0.0633 | 0.0536 | 0.0588 | 0.0507 | 0.0515 | – | –
3 | T55S | 0.0853 | 0.122 | 0.0626 | – | 0.0575 | 0.101 | 0.0738 | 0.0621 | 0.0986 | 0.0812 | 0.0605 | 0.103 | 0.0546 | 0.0535 | 0.0656 | – | – | 0.0733 | – | –
4 | Q59I | 0.0962 | 0.115 | – | – | 0.145 | – | 0.0373 | 0.0457 | 0.112 | 0.0736 | 0.0586 | 0.106 | 0.0733 | 0.0648 | 0.077 | – | 0.0803 | – | 0.0638 | –
5 | L61H | 0.12 | 0.133 | 0.0688 | – | 0.109 | 0.0739 | 0.0547 | – | – | 0.0589 | 0.0581 | 0.105 | – | 0.0808 | 0.0729 | 0.0498 | – | 0.0713 | 0.0636 | –
6 | L61W | 0.092 | 0.104 | – | – | 0.071 | – | 0.0739 | 0.0219 | 0.072 | 0.0733 | 0.0642 | 0.0949 | 0.0597 | 0.0604 | 0.0808 | 0.0544 | 0.0698 | 0.0507 | 0.0647 | 0.06
7 | F65G | 0.0869 | – | – | 0.0749 | 0.0789 | 0.0631 | – | – | 0.0806 | – | 0.0477 | 0.0899 | – | – | – | – | 0.053 | 0.0646 | 0.0377 | –
8 | F65L | 0.121 | 0.17 | 0.0655 | – | – | 0.073 | – | 0.0455 | 0.0817 | – | 0.0835 | 0.108 | – | – | – | – | 0.0492 | – | 0.0561 | –
9 | K66L | 0.0917 | 0.165 | 0.0686 | 0.107 | 0.111 | 0.0846 | 0.0617 | 0.0494 | 0.0847 | 0.0766 | 0.065 | 0.104 | 0.0552 | 0.0603 | 0.0833 | 0.0524 | – | 0.07 | 0.0616 | 0.0651
10 | D69E | 0.0731 | 0.108 | – | – | – | 0.099 | – | – | 0.0971 | – | 0.0675 | 0.0887 | 0.0569 | 0.125 | 0.0871 | – | 0.0599 | 0.0633 | – | –
11 | T70I | 0.0531 | – | 0.046 | – | – | – | 0.0754 | 0.062 | 0.0664 | 0.0677 | 0.0593 | 0.0781 | – | 0.0646 | – | – | – | 0.0619 | 0.0479 | –
12 | T71E | 0.0957 | – | 0.0604 | – | – | 0.0735 | 0.0524 | 0.0642 | 0.0919 | – | 0.0954 | 0.0841 | 0.0842 | 0.064 | 0.0695 | 0.0574 | – | 0.0658 | 0.063 | –
13 | Q75F | 0.0982 | 0.106 | 0.0682 | – | 0.0923 | 0.0683 | 0.0577 | 0.0496 | 0.0783 | 0.0544 | 0.0625 | 0.0992 | 0.0747 | – | 0.0784 | – | – | 0.0603 | 0.0605 | –
14 | Q75K | 0.0826 | 0.083 | 0.0761 | 0.0523 | – | 0.0428 | 0.0437 | – | 0.0587 | 0.0738 | 0.0744 | 0.0708 | – | 0.06 | 0.0592 | 0.0784 | – | 0.0621 | – | –
15 | H76R | 0.0855 | 0.0844 | 0.0629 | 0.0863 | 0.0656 | 0.0573 | 0.0402 | 0.0495 | 0.0685 | 0.062 | – | 0.0778 | – | 0.0656 | 0.0676 | – | 0.0668 | 0.0493 | 0.0285 | –
16 | L77H | 0.0551 | 0.0774 | 0.0537 | 0.0459 | 0.0724 | 0.062 | – | 0.0547 | 0.0685 | – | 0.0469 | 0.0679 | – | 0.0277 | – | 0.0626 | – | 0.0693 | 0.0399 | –
17 | L77I | 0.0868 | 0.0856 | 0.065 | – | 0.0781 | – | 0.0534 | 0.0576 | 0.0639 | 0.0794 | 0.0606 | 0.0874 | 0.074 | 0.0694 | 0.0469 | 0.0495 | – | 0.0668 | – | –
18 | L77Y | 0.0654 | – | – | – | 0.0709 | 0.0684 | 0.0449 | 0.0557 | 0.0698 | 0.0666 | 0.055 | 0.0612 | 0.0753 | 0.0775 | 0.0504 | – | – | – | 0.0627 | –
19 | V78P | 0.0999 | 0.0984 | – | – | 0.0789 | 0.0674 | 0.0595 | 0.0609 | 0.0572 | 0.0587 | 0.0493 | 0.0731 | 0.061 | 0.0331 | 0.0548 | 0.0641 | 0.0741 | 0.0547 | – | –
20 | V78Y | 0.0857 | 0.0783 | 0.0627 | 0.0578 | 0.0766 | 0.049 | 0.057 | 0.0604 | 0.0683 | – | 0.06 | 0.0751 | – | 0.0615 | – | – | – | 0.0563 | 0.0578 | –
21 | R81C | 0.138 | 0.109 | 0.0613 | 0.0801 | 0.0787 | 0.0778 | 0.0578 | 0.057 | 0.0836 | 0.0734 | 0.058 | 0.0966 | 0.0615 | 0.0646 | 0.0634 | 0.0512 | – | 0.0612 | 0.0578 | –
22 | D82K | 0.0629 | – | – | – | 0.0641 | – | 0.0656 | 0.0453 | – | 0.0614 | 0.0627 | 0.0569 | – | 0.0584 | – | – | – | 0.0239 | 0.0538 | –
23 | D82N | 0.0545 | – | 0.0651 | 0.0616 | – | 0.0512 | 0.0802 | – | – | 0.0666 | 0.0648 | 0.06 | 0.0586 | – | – | – | 0.0491 | 0.0561 | 0.0541 | –
24 | M83D | 0.0356 | 0.0542 | 0.0467 | – | 0.0686 | 0.0428 | 0.059 | 0.0474 | – | 0.0458 | 0.0481 | 0.0532 | – | 0.0341 | 0.0624 | – | – | 0.0515 | 0.0494 | 0.0548
25 | I86V | 0.0967 | 0.111 | 0.0894 | – | – | – | 0.0493 | 0.0677 | 0.0898 | 0.082 | 0.064 | 0.106 | 0.0639 | 0.0572 | – | 0.0874 | – | 0.073 | 0.0851 | –

— the supplement of paper PMC12217912
